Measurements taken from article PMC4336329 (PLoS ONE, 2015).
In all, about 310,000 compounds went through this assay and about 2,200 (0.71%) showed an effect of 50% or more. Effects have a minus sign here. This is one part of the list.

These compounds were tested against human ether-à-go-go-related gene (hERG) potassium channel (human, UniProt Q12809) (assay: primary screen, population patch clamp on CHO cells stably expressing hERG).
Sequence of human ether-à-go-go-related gene (hERG) potassium channel (Q12809 whole entry, looked up): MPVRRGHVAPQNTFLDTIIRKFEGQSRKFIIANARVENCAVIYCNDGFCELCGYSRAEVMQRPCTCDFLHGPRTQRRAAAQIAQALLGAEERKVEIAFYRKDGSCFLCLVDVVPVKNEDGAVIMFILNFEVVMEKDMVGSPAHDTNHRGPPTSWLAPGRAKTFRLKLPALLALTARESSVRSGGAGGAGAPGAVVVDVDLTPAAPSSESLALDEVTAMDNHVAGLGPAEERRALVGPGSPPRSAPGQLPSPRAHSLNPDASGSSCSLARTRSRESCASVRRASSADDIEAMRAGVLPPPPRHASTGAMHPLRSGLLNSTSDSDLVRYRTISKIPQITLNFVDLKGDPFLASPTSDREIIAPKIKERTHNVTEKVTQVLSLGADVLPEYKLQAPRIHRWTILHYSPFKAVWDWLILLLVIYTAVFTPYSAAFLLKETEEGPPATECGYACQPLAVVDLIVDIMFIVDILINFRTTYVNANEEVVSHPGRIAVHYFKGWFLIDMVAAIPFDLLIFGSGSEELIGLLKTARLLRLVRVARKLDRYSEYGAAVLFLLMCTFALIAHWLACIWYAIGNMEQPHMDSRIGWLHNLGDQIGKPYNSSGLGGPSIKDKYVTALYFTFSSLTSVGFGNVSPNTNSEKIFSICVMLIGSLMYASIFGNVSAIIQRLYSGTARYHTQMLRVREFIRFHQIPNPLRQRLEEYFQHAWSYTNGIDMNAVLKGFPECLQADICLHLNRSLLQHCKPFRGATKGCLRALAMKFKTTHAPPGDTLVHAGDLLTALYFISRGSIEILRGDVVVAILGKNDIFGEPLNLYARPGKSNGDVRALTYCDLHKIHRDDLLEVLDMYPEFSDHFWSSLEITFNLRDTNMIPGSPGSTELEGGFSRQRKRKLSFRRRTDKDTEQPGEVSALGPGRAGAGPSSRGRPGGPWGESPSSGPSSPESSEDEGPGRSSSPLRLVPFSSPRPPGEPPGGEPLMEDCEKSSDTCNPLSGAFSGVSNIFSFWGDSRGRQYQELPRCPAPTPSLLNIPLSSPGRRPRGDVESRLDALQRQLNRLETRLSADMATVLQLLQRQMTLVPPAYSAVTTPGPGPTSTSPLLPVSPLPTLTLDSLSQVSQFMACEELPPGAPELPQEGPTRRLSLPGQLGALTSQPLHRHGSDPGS

Row | SMILES | hERG current change (%, negative = inhibition) at 1uM [%]
1 | CCOC(=O)Cn1c2ccc(OC)cc2c2nc3ccccc3nc21 | -8.05
2 | COC(=O)c1cccc(NCN2C(=O)c3ccccc3C2=O)c1 | 5.2
3 | CC(=O)Nc1ccc(OCC(O)Cn2ccnc2C)cc1 (centres unmarked) | 6.78
4 | Cl.Clc1ccccc1CN(Cc1ccco1)Cc1nnnn1C1CCCC1 | 9.88
5 | COc1cccc(/C=C(\C#N)c2nc3ccc(C)cc3[nH]2)c1OCC(=O)O | 14.8
6 | CCN(CC(=O)NCc1ccc(Cl)cc1)C(=O)c1cc(OC)cc(OC)c1 | -31.8
7 | Cc1cccc(Nc2nc3ccccc3n3nnnc23)c1 | 11.3
8 | CC1(C(=O)O)Cc2ccccc2C(=O)O1 (centres unmarked) | 16.5
9 | CN(CCC1CCOCC1)C(=O)CC1C(=O)NCCN1Cc1c(F)cccc1Cl (centres unmarked) | 10.4
10 | CC(C)(C)Nc1nc(Cl)nc(NCc2ccccc2)n1 | 7.78
11 | O=C(O)CSc1nnc(-c2ccc(Cl)cc2)n1-c1ccccc1 | 16.7
12 | COCC(=O)N1CCCC(C(=O)c2ccc3c4c(cccc24)CC3)C1 (centres unmarked) | -13.1
13 | CCn1c(SCc2nc3ccccc3[nH]2)nnc1-c1ccncc1 | 6.85
14 | Nc1cc(=O)[nH]c(SCC(=O)N2N=C(c3ccc4ccccc4c3)CC2c2ccccc2)n1 (centres unmarked) | 9.51
15 | Cc1nn(C)cc1C(=O)NNC(=S)Nc1ccc(Cl)cc1 | 12.6
16 | CCOC(=O)N1CCN(C(=O)c2ccc(-n3c(C)ccc3C)cc2)CC1 | 10.8
17 | CCCn1c(SCC(=O)NC2CCCC(C)C2C)n[nH]c1=O (centres unmarked) | 12.4
18 | COc1cc(C)c(NC(=O)C(=S)NCc2ccccc2)cc1C | 18.3
19 | Cc1c(Cl)cccc1NC(=O)Nn1cnnc1 | 16.9
20 | CCn1cc(C(=O)NC(=S)Nc2ccccc2Br)cn1 | 6.3
21 | COc1ccc(OC)c(-n2nnnc2SCC(=O)O)c1 | 6.78
22 | O=C(CCCOc1ccc(Cl)cc1Cl)NCc1ccncc1 | 3.15
23 | COc1cc(NC(=O)CNc2cccc(S(=O)(=O)N3CCCC3)c2)cc(OC)c1 | 9.8

Row | SMILES | hERG current change (%, negative = inhibition) at 1uM [%]
24 | N#CC1(N2CCN(C(=O)c3ccccc3)CC2)CCCCC1 | 19
25 | CC(=O)CCn1cnc([N+](=O)[O-])n1 | 11
26 | COc1cc(/C=C(/C#N)c2ccccc2)ccc1Oc1ccc([N+](=O)[O-])cn1 | 12
27 | CC(Sc1ccc(Cl)cc1)C(=O)N(C)CC(=O)Nc1ccc(N2CCOCC2)cc1 (centres unmarked) | -23.1
28 | O=C(/C=C\Nc1ccccn1)c1ccccc1 | 2.73
29 | C/C(=N\Nc1nc2ccccc2s1)c1ccc(Br)s1 | 1.19
30 | O=C(N/N=C/c1ccc2cccc(OCc3ccccc3)c2n1)c1ccc(Br)cc1 | 6.09
31 | O=C(O)c1cccc(-n2cc(-c3cccc(C(F)(F)F)c3)cn2)c1 | 4.88
32 | Cc1ccc(-n2cccc2/C=C2\C(=N)N3N=C(c4ccco4)SC3=NC2=O)cc1 | 0.991
33 | COCCNC(=O)c1ccc(C)cc1C | 16.8
34 | CCOC(=O)C1CCN(C(=O)NC23CC4CC(CC(C4)C2)C3)CC1 | -4.34
35 | Cc1[nH]c2ccccc2c1Cc1nnc(SCCC#N)o1 | 10.8
36 | COCCNC(=O)/C(C#N)=C/C(C)=C/c1ccccc1 | 8.29
37 | Cc1ncc([N+](=O)[O-])n1CCOC(N)=O | 11.3
38 | COc1ccccc1CNC(=O)C1CCC(CNS(=O)(=O)c2cccs2)CC1 (centres unmarked) | -4.65
39 | O=C(Nc1ccc2c(c1)OCCO2)N1CCN(c2ccc(F)cc2)CC1 | 9.85
40 | O=C(Cc1ccccc1F)NCC(c1ccco1)N1CCCCC1 (centres unmarked) | 15.7
41 | COc1ccc(OC)c(CN2CCCCCC2)c1.O=C(O)C(=O)O | 13.5
42 | CCCCCN(C(=O)CCC(=O)OCC(=O)N1CCCCC1C)c1c(N)n(CCCC)c(=O)[nH]c1=O (centres unmarked) | 11.5
43 | CCOC(=O)c1ccc(NC(=O)Cn2nnc3ccccc32)cc1 | 2.4
44 | CSc1nc(-c2ccccc2)cc(C)c1C#N | -7.47
45 | CN(C)c1ccc(/C=N/n2c(-c3ccccc3Br)n[nH]c2=S)cc1 | 13.9
46 | CC(=O)c1c(C)[nH]c(C(=O)OCc2cccc(C)c2)c1C | 12.3

Row | SMILES | hERG current change (%, negative = inhibition) at 1uM [%]
47 | CC(C)(C)OC(=O)N1CCC[C@H]1c1nnc(SCc2ccccc2)o1 | 4.56
48 | CCn1c(SCC(=O)N2CCOCC2)nnc1C(C)NC(=O)c1ccccc1 (centres unmarked) | 4.59
49 | Cn1c(=O)cc(NCCc2ccccc2)[nH]c1=O | -1.53
50 | O=S(=O)(c1cccs1)N1CCN(c2ccc(O)cc2)CC1 | -1.01
51 | COc1cc(/C=N/NC(=O)CCC(=O)Nc2ccc(C)cc2)ccc1O | 7.32
52 | Br.Cc1ccc(S(=O)(=O)NN2Cc3ccccc3C2=N)cc1 | 7.96
53 | Cc1ccc2[nH]c(=O)c(C(c3nnnn3CCc3ccccc3)N3CCOCC3)cc2c1 (centres unmarked) | 8.41
54 | CCCC1=NN(C(=O)Cc2ccc(OC)c(OC)c2)C(O)(C(F)(F)F)C1 (centres unmarked) | 4.64
55 | CCCc1nc2c(sc3nc4c(cc32)COC(C)(C)C4)c(=O)n1CCN(CC)CC | 5.45
56 | CCOC(=O)c1ccc(NC(=O)CSc2nnnn2C2CCCCC2)cc1 | 10.5
57 | CC1=C(C(=O)N2CCCC(N3CCN(c4cccc(Cl)c4)CC3)C2)OCCO1 (centres unmarked) | 28.6
58 | CCOC(=O)C1CCCN(C(=O)c2ccc3c(c2)OCO3)C1 (centres unmarked) | -0.968
59 | CCOc1cccc2cc(C(=O)NC(C)c3ccccc3)c(=N)oc12 (centres unmarked) | 5.08
60 | COc1ccc(N(CC(=O)N/N=C/c2cccc3c2OCCO3)S(=O)(=O)c2ccc(NC(C)=O)cc2)cc1 | 14.1
61 | COc1ccccc1C1(O)CCN(CC(=O)Nc2nc(-c3ccccc3)cs2)CC1 | -13.5
62 | NC(=O)CN1C(=O)C(O)(CC(=O)/C=C\C=C\c2ccccc2)c2ccccc21 (centres unmarked) | -0.255
63 | Cc1ccc(C)c(NC(=O)COC(=O)c2ccc3c(c2)OCCO3)c1 | 12.8
64 | CCCCOc1ccc(C(=O)NCC(=O)N2CCN(C(=O)c3ccco3)CC2)cc1 | -10.8
65 | Cc1cc(NC(=O)CN2C(=O)N(C)C3(CCCCC3)C2=O)ccc1Br | 10.1
66 | CCOc1ccc(Cc2nc(N)nc(N)n2)cc1 | 2.98
67 | Cc1ccc(NC(=O)c2cc(-c3cc(C)c(C)cc3O)n[nH]2)cc1C | -3.43
68 | CCOC(=O)c1c(C)[nH]c(-c2csc(C)n2)c1C | 10.7
69 | CCCC(=O)Nc1c(-c2ccccc2)c(=O)c(C)nn1-c1ccc(C)cc1 | 9.23

Row | SMILES | hERG current change (%, negative = inhibition) at 1uM [%]
70 | CCCS(=O)(=O)c1nc(S(=O)(=O)c2ccc(C)cc2)c(N2CCC3(CC2)OCCO3)s1 | 10.7
71 | Cn1c(CSCCOc2ccccc2)n[nH]c1=S | 13.2
72 | CCCCc1nnc(NC(=O)C(=O)OCC)s1 | 21.4
73 | COCCNC(=O)c1cccc(OC2CCN(Cc3cccc(C(C)=O)c3)CC2)c1 | 11.3
74 | COc1ccc(CNC(=O)C2CCCN(S(=O)(=O)c3c(C)noc3/C=C/N(C)C)C2)cc1 (centres unmarked) | 12.1
75 | CC(C)(C)NC(=O)COC(=O)c1ccccc1NC(=O)c1ccco1 | -2.87
76 | Cc1c(NC(=O)CSc2ccccc2F)c(=O)n(-c2ccccc2)n1C | 6.15
77 | Cc1cccc2c1N(C)C(=O)C2=O | 18.6
78 | COc1ccc(S(=O)(=O)NCC2CCC(C(=O)O)CC2)cc1 (centres unmarked) | 13.4
79 | Cc1cc(C)cc(NC(=O)CSc2nc(N)c(NC(=O)c3ccc(Br)o3)c(=O)[nH]2)c1 | 12.9
80 | Cn1ncc2c(NNC(=O)Cc3ccccc3)ncnc21 | 14.5
81 | CCc1ccccc1NC(=O)N1CCC(NC(=O)C(Cc2ccc(OC)c(OC)c2)NC(C)=O)CC1 (centres unmarked) | 9.88
82 | COC(=O)C1(NC(=O)NC2CCCCC2)CCCCC1 | 15.8
83 | COC(=O)c1c(NC(=O)COC(=O)CC(NC(C)=O)c2ccccc2)sc(C)c1C (centres unmarked) | 15.6
84 | NC(=S)Nc1ncc(CCN2CCOCC2)c(-c2ccc(F)cc2)n1 | -7.43
85 | COC(=O)c1sccc1NC(=O)CC1NCCNC1=O (centres unmarked) | 10
86 | Cc1cc(C(=O)N/N=C/c2cc(Br)ccc2OC(=O)c2ccccc2)n[nH]1 | 6.23
87 | COC(=O)Nc1ccc(S(=O)(=O)N2CCCCC2C(=O)NCc2ccco2)cc1 (centres unmarked) | 12.8
88 | CC(=O)Nc1ccc(NC(=O)C2CCCCN2S(=O)(=O)c2ccc(C(C)(C)C)cc2)cc1 (centres unmarked) | 12.8
89 | CCOc1ccc(Br)cc1S(=O)(=O)Nc1ccc(C(=O)Nc2ccc(C)cc2)cc1 | 4.22
90 | CCCCNc1nc(CC)c2c(c1C#N)CCCC2 | 13.8
91 | COc1cc(CCC(=O)Nc2cc(C)cc(C)c2)cc(OC)c1OC | 10.5
92 | COc1ccc(OC)c(N2C(=O)CC(Cc3ccc(C)cc3)C2=O)c1 (centres unmarked) | 12
